From PubChem BioAssay AID686978 (National Center for Advancing Translational Sciences (NCATS), 2013)
The whole screen tested about 420,000 compounds, of which about 64,000 (15%) were called active. This list was built around the results that the source calls inconclusive (neither active nor inactive); the mix of calls is not that of the screen. Calls follow the shape of the dose curve; as a rule, active = well fitted inhibition curve with a large enough effect; inconclusive = small, poorly fitted or top-dose-only effect; inactive = flat fitted curve, though single readings scatter. Potencies of inconclusive entries are left out as doubtful fits. The source holds several records for some structures; these can differ, active in one and inactive in another.

Experiment: qHTS for Inhibitors of human tyrosyl-DNA phosphodiesterase 1 (TDP1): qHTS in cells in absence of CPT; also: nearly all actives have a fitted effect of over 55% in size
Settings: DT40 Tdp1-/- hTDP1 cells, no CPT, ATP luminescence, 48 h; activity change, negative = growth inhibition: at 46.2 µM (top of the series) unless noted
Method in brief: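 Growth of hTDP1-complemented DT40 Tdp1-knockout cells is measured by ATP luminescence after at least 48 hr compound exposure at 37 °C, with DMSO substituting for the 20 nM CPT used in the parallel screen.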
% is scaled to controls: 0 for no effect and ±100 for the full control effect; potency is read from the fitted curve at half-maximal effect; tags tell the direction and shape of the fitted curve.

Row | Compound | Potency | activity change, negative = growth inhibition
1 | CC(C)C(=O)Nc1ccc(Br)cc1Cl | inactive | –
2 | CCOc1ccc(N2C(=O)/C(=C/c3ccco3)N(C)C2=S)cc1 | inactive | –
3 | COc1cc(NS(=O)(=O)c2ccc(Br)s2)cc(OC)c1 | inconclusive [inhibitor, single point] | –
4 | CCSc1ncc(Cl)c(C(=O)Nc2cccc(Cl)c2)n1 | inconclusive [inhibitor, partial curve] | –
5 | CCn1c(-c2ccccc2F)nc2cc(NC(C)=O)cc(C(=O)N(C)Cc3c(C)nc4ccccn34)c21 | inconclusive [inhibitor, single point] | –
6 | Cc1ccc2cc(C3CC(c4ccco4)=NN3S(C)(=O)=O)c(Cl)nc2c1 (stereo not drawn) | inconclusive [inhibitor, single point] | –
7 | CS(=O)(=O)N1CCC[C@@]2(CCN(Cc3nccs3)C2)C1 | inactive | –
8 | CCCCCCC(=O)Nc1nc(C)c(-c2csc(Nc3cc(Cl)ccc3C)n2)s1 | inconclusive [inhibitor, single point] | –
9 | Nc1sccc1C(=O)NCc1ccccc1 | active: 14.6 µM | –
10 | CNc1nc(N)c([N+](=O)[O-])c(Nc2cccc(Cl)c2)n1 | inconclusive [inhibitor, partial curve] | –
11 | O=C(N/N=C/c1coc2ccccc2c1=O)c1cc2ccccc2o1 | – | inconclusive: -31.1% [inhibitor]
12 | COc1ccc(CCc2ccc3ccccc3n2)cc1 | inconclusive [inhibitor, single point] | –
13 | CSc1ncccc1C(=O)NC1CCCc2c1cnn2-c1ccc(C)c(C)c1 (stereo not drawn) | active: 7.31 µM | –
14 | CCCNC(=O)C1CCN(S(=O)(=O)c2cccs2)CC1 | inactive | –
15 | CCn1nc(C(=O)NNC(=O)c2ccccc2OCc2c(C)noc2C)c2ccccc2c1=O | inconclusive [inhibitor, partial curve, poor fit] | –
16 | CCN(CC)c1ccc2cc(S(=O)(=O)c3ccc(Cl)cc3)c(=O)oc2c1 | inconclusive [inhibitor, single point] | –
17 | COc1ccc(CCNC(=O)c2ccc3c(c2)CCN3S(C)(=O)=O)cc1OC | inconclusive [inhibitor, partial curve] | –
18 | CCn1c(NC(=O)c2cccs2)nc2ccccc21 | inconclusive [inhibitor, single point] | –
19 | CC(C)c1ccc(-c2nn[nH]n2)cc1 | – | inconclusive: -30.2% [inhibitor]
20 | O=C(Nc1cccnc1)c1cc2c(s1)-c1ccccc1OC2 | inconclusive [inhibitor, full curve, poor fit] | –
21 | Cc1nc(-c2ccc(S(=O)(=O)Nc3cc(Cl)ccc3C)cc2)co1 | inconclusive [inhibitor, single point] | –
22 | CCCc1cc(=O)oc2cc(C)cc(OCc3nn[nH]n3)c12 | inactive | –
23 | Cc1ccc2cc(/C=N/NC(=O)c3ccccc3[N+](=O)[O-])c(Cl)nc2c1 | inconclusive [inhibitor, single point] | –
24 | CC1CC(C)CN(CCCOc2ccccc2[N+](=O)[O-])C1 (stereo not drawn) | inconclusive [inhibitor, single point] | –
25 | CC(C)CCNC(=O)c1cccc(C(=O)NCCC(C)C)c1 | inconclusive [inhibitor, single point] | –

Row | Compound | Potency | activity change, negative = growth inhibition
26 | COc1ccc2c(c1)c(=O)c(C(=O)c1ccccc1)cn2CC(=O)Nc1ccc2c(c1)OCO2 | inactive | –
27 | Cc1sc2nc(CSCC(=O)NC3(C#N)CCCCC3)[nH]c(=O)c2c1C | inconclusive [inhibitor, single point] | –
28 | CCCOc1ccc(Cc2c(O)nc(N)[nH]c2=O)cc1C | inactive | –
29 | CC(C)CC(=O)n1sc(NC(=O)c2ccccc2)nc1=O | active: 20.6 µM | –
30 | CC[C@]12c3[nH]c4ccc(Cl)cc4c3CCN1C(=O)[C@@H](CC(=O)NCCc1ccccn1)C[C@@H]2C(=O)N1CCN(C(=O)C2CC2)CC1 | inconclusive [inhibitor, single point] | –
31 | O=C(c1ccc(-n2cncn2)c([N+](=O)[O-])c1)N1CCN(S(=O)(=O)c2ccccc2F)CC1 | inconclusive [inhibitor, single point] | –
32 | Cc1ccccc1N1CCN(C(=O)c2ccccc2NC(=O)C2CC=CCC2C(=O)O)CC1 (stereo not drawn) | inactive | –
33 | CC(OC(=O)c1ccc(Cl)c([N+](=O)[O-])c1)C(=O)N1CCN(Cc2ccccc2)CC1 (stereo not drawn) | inconclusive [inhibitor, single point] | –
34 | Cc1cccc(OCCSc2nncn2C)c1 | inactive | –
35 | O=C1NCC(c2ccccc2)C1C(=O)N/N=C\c1ccc(-c2cccc(Cl)c2Cl)o1 (stereo not drawn) | inconclusive [inhibitor, single point] | –
36 | CCNC(=S)N(CCO)Cc1cc2cc3c(cc2[nH]c1=O)OCO3 | inactive | –
37 | Cc1ccc(C(O)(CNCc2ccccc2)c2ccccc2)cc1 (stereo not drawn) | inconclusive [inhibitor, partial curve] | –
38 | Cc1ccc(S(=O)(=O)N2[C@@H](Cc3ccccc3)CO[C@H]2CC(=O)c2cccs2)cc1 | inconclusive [inhibitor, single point] | –
39 | O=C(NC1CCCCC1)c1ccc2c(c1)OCCO2 | inactive | –
40 | O=c1c2ccccc2nc(/C=C/c2cccc3ccccc23)n1-c1ccc(F)cc1F | inconclusive [inhibitor, single point] | –
41 | O=S(=O)(c1ccc(Cl)cc1)N1CCCC1c1nc(-c2cccc(Cl)c2)no1 (stereo not drawn) | inconclusive [inhibitor, single point] | –
42 | Cc1cccc(CN2C(=O)c3ccccc3Sc3ccc(C(=O)NCc4ccco4)cc32)c1 | inconclusive [inhibitor, single point] | –
43 | CCOc1ccc(NC(=O)c2oc3ccccc3c2NC(=O)COc2cccc(OC)c2)cc1 | inactive | –
44 | CCS(=O)(=O)c1ncc(Cl)c(C(=O)N2CCN(c3ccc(OC)cc3)CC2)n1 | active: 4.11 µM | –
45 | COc1ccccc1C(=O)NC1CCN(C(=O)Nc2ccc(F)cc2)CC1 | inactive | –
46 | COc1ccc(CNC(=O)[C@@H](C)NC(=O)[C@@H]2Cc3ccccc3CN2)cc1 | inactive | –
47 | CNc1c(NS(=O)(=O)c2ccc3c(c2)CCCC3)c(=O)oc2ccccc12 | inactive | –
48 | C#CCOCCOCCOCCNc1nc(N2CCN(C(=O)CCCCCCCCCCNC(=O)Cn3cc(C[C@@H](C)O)nn3)CC2)nc(N2CCN(C(=O)CCCCCCCCCCNC(=O)[C@@H]([C@H](C)CC)n3cc(CCCCCN)nn3)CC2)n1 | active: 5.8 µM | –
49 | CC(=O)c1cccc(-c2ccc(CN3C(CC(C)C)C(=O)N(Cc4cn(CC5CCCCC5)nn4)CCS3(=O)=O)cc2)c1 (stereo not drawn) | inconclusive [inhibitor, single point] | –
50 | O=C(/C=C/c1cccc(F)c1)N(c1ccccn1)C1CCCCC1 | inconclusive [inhibitor, partial curve] | –

Row | Compound | Potency | activity change, negative = growth inhibition
51 | CNc1cccc(-c2ccccc2CO)n1 | inactive | –
52 | CC1CCN(S(=O)(=O)N2CCC(C(=O)NCc3ccccc3Cl)CC2)CC1 | active: 13 µM | –
53 | CC1=C(/C=C/C(C)=C/C=C/C(C)=C/CO)C(C)(C)CCC1 | active: 20.6 µM | –
54 | CCc1cc2ccc(OC)cc2nc1SCC(=O)N1CCN(C(=O)c2ccco2)CC1 | inactive | –
55 | COC(=O)c1ccc(Nc2ncnc3c2cnn3C)cc1 | inactive | –
56 | Brc1cccc(OCCCCN2CCCCC2)c1 | inconclusive [inhibitor, single point] | –
57 | COC(=O)c1ccccc1C(=O)NCc1nc(N2CCCC2)c2cccc(C)c2n1 | inactive | –
58 | Cc1ccc(C)c(NC(=S)/C(=C(\[O-])c2ccc(OC(F)F)cc2)[n+]2ccccc2)c1 | inconclusive [inhibitor, single point] | –
59 | O=C(CSc1ccc(-c2ccccc2)nn1)NCC1CCCO1 (stereo not drawn) | inactive | –
60 | C[C@H](NC(=O)c1nc[nH]c1C(=O)NCc1ccccc1)C(=O)OCc1ccccc1 | inactive | –
61 | CN(C)/C=C/C(=O)c1cc(N2CCOCC2)ccc1[N+](=O)[O-] | inactive | –
62 | COc1cc(/C=N/NC(=O)c2cc(-c3ccco3)nc3ccccc23)cc(OC)c1O | inconclusive [inhibitor, full curve] | –
63 | CCOc1ccccc1NC(=S)NC(=O)CCc1ccccc1 | inconclusive [inhibitor, single point] | –
64 | COc1cccc(NC(=O)c2ccccc2-c2ccccc2C(=O)O)c1 | inactive | –
65 | Cc1cn2c(=O)cc(COC(=O)c3ccc(NC(=O)c4ccc(F)cc4)cc3)nc2s1 | inconclusive [inhibitor, single point] | –
66 | CCc1ccc(-c2cc(C)no2)cc1S(=O)(=O)NCCCN1CCN(c2ccccc2)CC1 | inconclusive [inhibitor, single point] | –
67 | O=C(CCCCCNC(=S)Nc1ccccc1)C[N+](=O)[O-] | inactive | –
68 | CCN(CC)C(=O)COc1ccc2c3c(c(=O)oc2c1C)CCCC3 | inconclusive [inhibitor, single point] | –
69 | CCN(CC)c1ccc(NC(=O)c2cc(C)nc3c2c(C)nn3-c2ccc(C)cc2)c(C)c1 | – | inconclusive: -30.8% [inhibitor]
70 | Cc1cccc(OCC(=O)Nc2ccc(N3CCN(C(=O)c4ccco4)CC3)cc2)c1 | active: 20.6 µM | –
71 | O=C(NCCCN1CCCC1=O)c1cn(-c2ccccc2)nc1-c1ccccc1 | inactive | –
72 | CC(=O)C[C@H]1c2ccccc2S(=O)(=O)N1C1CCCCC1 | inconclusive [inhibitor, single point] | –
73 | COc1ccc(C2c3[nH]c4ccccc4c3CCN2C(=O)CCC2CCCC2)cc1 (stereo not drawn) | inconclusive [inhibitor, single point] | –
